{"source": "the supplement of paper PMC3334620", "note": "Whole data set: some 33,000 sequences, median “E-score (-0.5 to 0.5)” near -0.056, cut for the highest 2% near 0.38. This is one part of the list."}
{"target": "Stb4 (UniProt P50104)", "assay": "PBM E-score (8-mer binding enrichment) (E-score (-0.5 to 0.5)); higher = stronger / more preferred TF binding; most listed sequences are background and not binding sites", "details": "protein concentration: 200 nM; construct: GST-DNA-binding domain", "outline": "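Yeast transcription factors, full-length or as DNA-binding domains, were expressed with a GST tag using PURExpress in vitro transcription/translation. At about 100-200 nM they were applied to universal all-10-mer Agilent arrays, double-stranded by primer extension on fresh or once-stripped slides. Fluorescent anti-GST detected bound protein, and masliner normalised the scans. E-scores for ungapped eight-base words, pooled with reverse complements, came from the Universal PBM Analysis Suite.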"}
{"sequence": "ATGGGGTA", "PBM E-score": -0.00817}
{"sequence": "CGAGGACG", "PBM E-score": 0.258}
{"sequence": "GTACCAAA", "PBM E-score": -0.107}
{"sequence": "GGGTTGTA", "PBM E-score": 0.0863}
{"sequence": "GCGGCGAA", "PBM E-score": 0.145}
{"sequence": "GGGCTTAA", "PBM E-score": 0.0507}
{"sequence": "TAGTAGAA", "PBM E-score": 0.0104}
{"sequence": "ATTGTAGA", "PBM E-score": -0.132}
{"sequence": "ACTTGGTA", "PBM E-score": -0.265}
{"sequence": "ATACAGTG", "PBM E-score": -0.222}
{"sequence": "GGGGTACC", "PBM E-score": 0.0937}
{"sequence": "CTGGGGAC", "PBM E-score": -0.245}
{"sequence": "AGTTATTC", "PBM E-score": 0.0607}
{"sequence": "GTCGTGCA", "PBM E-score": -0.191}
{"sequence": "AAAGACTG", "PBM E-score": -0.256}
{"sequence": "AAGCCTTA", "PBM E-score": -0.0586}
{"sequence": "AGTGGTTA", "PBM E-score": -0.128}
{"sequence": "AGGGTAGG", "PBM E-score": -0.0936}
{"sequence": "CCATACGC", "PBM E-score": -0.113}
{"sequence": "ACGGAGCA", "PBM E-score": 0.13}
{"sequence": "ACTTTACT", "PBM E-score": -0.0966}
{"sequence": "CAACTGGC", "PBM E-score": -0.151}
{"sequence": "CCTCCACC", "PBM E-score": -0.0886}
{"sequence": "ACGATCAA", "PBM E-score": -0.0309}
{"sequence": "GCTGACCC", "PBM E-score": 0.0447}
{"sequence": "GAGATCGA", "PBM E-score": 0.00738}
{"sequence": "CACCAATA", "PBM E-score": -0.152}
{"sequence": "GCAATTCA", "PBM E-score": -0.036}
{"sequence": "GAGCCGTA", "PBM E-score": 0.191}
{"sequence": "CGCACGTC", "PBM E-score": -0.0639}
{"sequence": "ACCTGCTC", "PBM E-score": -0.00145}
{"sequence": "CCCCACTC", "PBM E-score": -0.214}
{"sequence": "AGCTGGCG", "PBM E-score": -0.107}
{"sequence": "TAGAGTGA", "PBM E-score": -0.0225}
{"sequence": "CATGTAAC", "PBM E-score": 0.0377}
{"sequence": "AGACTAAT", "PBM E-score": -0.00603}
{"sequence": "ACCAGATA", "PBM E-score": -0.0575}
{"sequence": "GACATCTC", "PBM E-score": -0.0702}
{"sequence": "AAGAGGTA", "PBM E-score": 0.0656}
{"sequence": "TATGCGAA", "PBM E-score": -0.048}
{"sequence": "CGTTGTAG", "PBM E-score": 0.0224}
{"sequence": "AACGCTTA", "PBM E-score": -0.0958}
{"sequence": "CTTAGGCA", "PBM E-score": -0.209}
{"sequence": "ACCGTCAC", "PBM E-score": -0.0593}
{"sequence": "AAGTCTAT", "PBM E-score": -0.194}
{"sequence": "CATTTGGG", "PBM E-score": -0.186}
{"sequence": "CAAAGGAA", "PBM E-score": -0.00457}
{"sequence": "CGCTATTA", "PBM E-score": -0.0567}
{"sequence": "AGGTATCG", "PBM E-score": 0.165}
{"sequence": "CTGGGGTC", "PBM E-score": -0.16}
{"sequence": "AGTGGACG", "PBM E-score": -0.0495}
{"sequence": "ACTATTTG", "PBM E-score": -0.051}
{"sequence": "GACCCCGC", "PBM E-score": -0.0145}
{"sequence": "AACCTGTA", "PBM E-score": -0.212}
{"sequence": "CTTGGCTA", "PBM E-score": -0.295}
{"sequence": "CCACCCTC", "PBM E-score": 0.0269}
{"sequence": "CCCAGGAA", "PBM E-score": -0.296}
{"sequence": "GAAGACGA", "PBM E-score": -0.119}
{"sequence": "ACGTTGCA", "PBM E-score": 0.0136}
{"sequence": "ATTCGAAT", "PBM E-score": -0.219}
{"sequence": "ATGCCGAA", "PBM E-score": 0.433}
{"sequence": "AGCAATTA", "PBM E-score": -0.0712}
{"sequence": "AATGACTG", "PBM E-score": -0.156}
{"sequence": "AACTGAGG", "PBM E-score": -0.108}
{"sequence": "GGTGAACA", "PBM E-score": -0.237}
{"sequence": "ACGCAATC", "PBM E-score": 0.0277}
{"sequence": "ACGTTCCA", "PBM E-score": -0.0774}
{"sequence": "AACTAGGT", "PBM E-score": 0.144}
{"sequence": "CCTGGACG", "PBM E-score": -0.162}
{"sequence": "AAATCTCT", "PBM E-score": -0.0193}
{"sequence": "GTAACTAC", "PBM E-score": 0.0955}
{"sequence": "CGGAGGCA", "PBM E-score": 0.191}
{"sequence": "CGACAGAC", "PBM E-score": -0.0991}
{"sequence": "AGGTACAA", "PBM E-score": -0.158}
{"sequence": "CGAAGCCA", "PBM E-score": -0.0994}
{"sequence": "ATTCCGAC", "PBM E-score": 0.416}
{"sequence": "AACCACAA", "PBM E-score": -0.016}
{"sequence": "GCGCCTTA", "PBM E-score": -0.14}
{"sequence": "GAGGGATA", "PBM E-score": -0.0002}
{"sequence": "CTAACCCC", "PBM E-score": -0.0772}
{"sequence": "GGATCTAA", "PBM E-score": 0.16}
{"sequence": "CGCTTACG", "PBM E-score": -0.0795}
{"sequence": "ATTACGTG", "PBM E-score": -0.0426}
{"sequence": "ACACTCCA", "PBM E-score": -0.17}
{"sequence": "CTATCAGC", "PBM E-score": -0.166}
{"sequence": "CCATTGAA", "PBM E-score": -0.153}
{"sequence": "GGATCGTA", "PBM E-score": 0.218}
{"sequence": "GTCGGCTA", "PBM E-score": 0.377}
{"sequence": "AGTATCAT", "PBM E-score": 0.0471}
{"sequence": "AGTCTTTA", "PBM E-score": -0.232}
{"sequence": "ATAGATAG", "PBM E-score": -0.175}
{"sequence": "ACGCACAT", "PBM E-score": -0.158}
{"sequence": "TACGGGCA", "PBM E-score": 0.00388}
{"sequence": "CTCGCGAC", "PBM E-score": -0.131}
{"sequence": "CCAAGACA", "PBM E-score": -0.127}
{"sequence": "CTTGACTA", "PBM E-score": -0.0726}
{"sequence": "AGCTGGAA", "PBM E-score": -0.246}
{"sequence": "CCGAAACA", "PBM E-score": 0.364}
{"sequence": "ACACGTCA", "PBM E-score": -0.0839}
{"sequence": "ATTCCTCA", "PBM E-score": -0.178}
{"sequence": "AGGCGTGG", "PBM E-score": -0.158}
{"sequence": "AACCAGTC", "PBM E-score": 0.117}
{"sequence": "CCAAGCAG", "PBM E-score": -0.0901}
{"sequence": "AACTAGCG", "PBM E-score": 0.0384}
{"sequence": "AATCTGTG", "PBM E-score": -0.0797}
{"sequence": "AGACGGCG", "PBM E-score": -0.137}
{"sequence": "CTCATGAC", "PBM E-score": -0.0701}
{"sequence": "AGTCGGAG", "PBM E-score": 0.226}
{"sequence": "GGCACGTA", "PBM E-score": 0.0438}
{"sequence": "GCAACGGC", "PBM E-score": 0.129}
{"sequence": "ATACGGGG", "PBM E-score": -0.0189}
{"sequence": "CTTTCGAC", "PBM E-score": -0.172}
{"sequence": "AAACTGGC", "PBM E-score": -0.137}
{"sequence": "ATCAGAAC", "PBM E-score": -0.0273}
{"sequence": "AGGGGGTA", "PBM E-score": -0.35}
{"sequence": "AGCTGGCA", "PBM E-score": -0.097}
{"sequence": "CCTTGCGA", "PBM E-score": -0.172}
{"sequence": "ACACATTA", "PBM E-score": -0.107}
{"sequence": "ACGCATAA", "PBM E-score": -0.153}
{"sequence": "GGCCCTCA", "PBM E-score": -0.237}
{"sequence": "AGCCCTGG", "PBM E-score": -0.141}
{"sequence": "GCCACTAC", "PBM E-score": -0.0487}
{"sequence": "ACAAAGCT", "PBM E-score": -0.122}
{"sequence": "AATAGTAG", "PBM E-score": -0.0971}
{"sequence": "GTTTGATA", "PBM E-score": -0.0156}
{"sequence": "CGCAATTA", "PBM E-score": 0.142}
{"sequence": "AAAGTACG", "PBM E-score": 0.0208}
{"sequence": "GTCATACA", "PBM E-score": -0.208}
{"sequence": "ATTATACC", "PBM E-score": 0.143}
{"sequence": "TAGCCAAA", "PBM E-score": 0.0424}
{"sequence": "ATATTGCA", "PBM E-score": -0.0447}
{"sequence": "CTCTAGTC", "PBM E-score": -0.0877}
{"sequence": "TGACCCAA", "PBM E-score": -0.235}
{"sequence": "AGTGCATG", "PBM E-score": -0.22}
{"sequence": "ATATCGCC", "PBM E-score": 0.0778}
{"sequence": "GCCTTCAA", "PBM E-score": -0.13}
{"sequence": "ACTTTCAC", "PBM E-score": -0.0388}
{"sequence": "CAACCGTC", "PBM E-score": 0.0656}
{"sequence": "AACACACT", "PBM E-score": -0.191}
{"sequence": "CCTAGCGC", "PBM E-score": -0.139}
{"sequence": "GAACGCGC", "PBM E-score": 0.175}
{"sequence": "AGAGTGGA", "PBM E-score": -0.2}
{"sequence": "GCGACGAC", "PBM E-score": -0.0957}
{"sequence": "GCCGTTCA", "PBM E-score": 0.0188}
{"sequence": "GAGACCTA", "PBM E-score": -0.0943}
{"sequence": "CCATAGAG", "PBM E-score": -0.0878}
{"sequence": "ACCACAAT", "PBM E-score": 0.0164}
{"sequence": "GCGGATCC", "PBM E-score": 0.301}
{"sequence": "CCACAAGG", "PBM E-score": -0.016}
{"sequence": "AATTCATG", "PBM E-score": 0.0647}
{"sequence": "CCACTAGC", "PBM E-score": -0.22}
{"sequence": "CAATGCCC", "PBM E-score": 0.0552}
{"sequence": "CACCGATC", "PBM E-score": 0.135}
{"sequence": "AGGTGAAA", "PBM E-score": -0.0871}
{"sequence": "ACTCACAA", "PBM E-score": -0.129}
{"sequence": "CAAGACAG", "PBM E-score": -0.15}
{"sequence": "CAGCAATG", "PBM E-score": -0.394}
{"sequence": "AGACGGTG", "PBM E-score": -0.15}
{"sequence": "CTACCTTC", "PBM E-score": -0.00447}
{"sequence": "ACGAGTTC", "PBM E-score": -0.00258}
{"sequence": "CCCAGCGA", "PBM E-score": -0.218}
{"sequence": "ACACAGAT", "PBM E-score": -0.239}
{"sequence": "GGCCAACA", "PBM E-score": 0.0943}
{"sequence": "ATGCCGAC", "PBM E-score": 0.333}
{"sequence": "GCCGCCGC", "PBM E-score": 0.0507}
{"sequence": "ACCTCTCA", "PBM E-score": -0.147}
{"sequence": "ATGGGGAC", "PBM E-score": -0.055}
{"sequence": "CTACTAAC", "PBM E-score": 0.0266}
{"sequence": "CAAAGACG", "PBM E-score": -0.012}
{"sequence": "AACGCCAC", "PBM E-score": -0.0971}
{"sequence": "CATGATTA", "PBM E-score": -0.195}
{"sequence": "ACTACCCG", "PBM E-score": 0.401}
